Laboratory results published in PubChem BioAssay AID588453 (National Center for Advancing Translational Sciences (NCATS), 2011).
Screen size: about 390,000 compounds; about 4,000 (1%) were called active. Inconclusive means that the source gave no clear call. Such entries were picked first, then a sample of the others. Calls follow the shape of the dose curve; as a rule, active = well fitted inhibition curve with a large enough effect; inconclusive = small, poorly fitted or top-dose-only effect; inactive = no such curve, though single readings can be large or run the other way. Where the call is inconclusive, the potency comes from a doubtful curve fit.
Also: nearly all actives have a fitted effect of over 65% in size.
Potency is read from the fitted curve at half-maximal effect; tags tell the direction and shape of the fitted curve.

Each compound was assayed against Thioredoxin reductase 1, cytoplasmic (Rattus norvegicus) (UniProt O89049) (assay: qHTS Assay for Inhibitors of Mammalian Selenoprotein Thioredoxin Reductase 1 (TrxR1): qHTS). Conditions: recombinant rTrxR1, NADPH fluorescence consumption, selenite substrate; series mostly up to 114 µM.
Sequence of UniProt O89049 (O89049 whole entry, looked up): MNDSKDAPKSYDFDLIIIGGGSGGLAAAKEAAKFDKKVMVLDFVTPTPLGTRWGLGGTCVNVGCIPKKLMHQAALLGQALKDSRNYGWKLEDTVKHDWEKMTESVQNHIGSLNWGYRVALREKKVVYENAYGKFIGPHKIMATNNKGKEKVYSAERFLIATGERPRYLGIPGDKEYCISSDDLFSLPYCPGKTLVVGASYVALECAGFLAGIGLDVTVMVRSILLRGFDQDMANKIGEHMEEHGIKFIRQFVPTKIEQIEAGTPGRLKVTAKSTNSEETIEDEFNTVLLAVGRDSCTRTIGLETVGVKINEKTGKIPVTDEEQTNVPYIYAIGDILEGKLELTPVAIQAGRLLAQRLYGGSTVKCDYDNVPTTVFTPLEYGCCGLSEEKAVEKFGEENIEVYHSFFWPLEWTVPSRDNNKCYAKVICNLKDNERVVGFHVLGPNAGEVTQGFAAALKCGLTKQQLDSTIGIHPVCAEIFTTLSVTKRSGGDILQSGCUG
Method in brief: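 Rat TrxR1 (90 nM in the dispensed reagent) was pre-reduced with 400 uM NADPH for 5 min at room temperature, then incubated with compound for 15 min. After 400 uM selenite was added, NADPH fluorescence (Ex 340/Em 450 nm) was followed for 8 min.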
With `O=C(NCc1ccco1)/C(=C/C=C/c1ccccc1)NC(=O)c1ccco1` the Potency was inconclusive: 44.7 µM [inhibitor, partial curve].
In the case of `Cc1c([N+](=O)[O-])cnc(Sc2ccccc2)c1[N+](=O)[O-]`, the Potency was inconclusive: 14.1 µM [inhibitor, full curve].
In the case of `CCN(CC)c1ccc(C(=C2C=CC(=[N+](CC)CC)C=C2)c2ccc(N(CC)CC)cc2)cc1`, the Potency was inconclusive: 17.8 µM [inhibitor, full curve].
With `Cn1c(=O)c2[nH]c(CSCc3ccccc3)nc2n(C)c1=O` the Potency was “inactive”.
For `Cc1c(N2C(=O)/C(=C3\C(=O)N(CC(=O)O)c4ccccc43)SC2=S)c(=O)n(-c2ccccc2)n1C`, the Potency was inconclusive: 63.1 µM [inhibitor, single point].
With `CCCn1c(C)cc(/C=C(\C#N)C(=O)OCC(=O)Nc2ccc(OC)c(Cl)c2)c1C` the Potency was active: 79.4 µM.
With `CC1=NOC(=O)/C1=C\c1ccc(-c2ccc(Br)cc2)o1` the Potency was “inactive”.
In the case of `CC(C)CC(=O)NC(=S)Nc1ccccc1F`, the Potency was inconclusive: 15.8 µM [inhibitor, full curve].
In the case of `O=C1ON=C(c2ccccc2)/C1=C/c1ccc(OS(=O)(=O)c2ccccc2)cc1`, the Potency was active: 2.82 µM.
For `Cc1nccn1S(=O)(=O)c1cc([N+](=O)[O-])ccc1Cl`, the Potency was inconclusive: 2.51 µM [inhibitor, partial curve, poor fit].
In the case of `O=C(NC(=S)NC1CCCCC1)c1ccccc1[N+](=O)[O-]`, the Potency was inconclusive: 50.1 µM [inhibitor, partial curve].
With `COc1ccc(CNC(=O)Cn2c(=O)nc(-c3ccccc3F)c3cc(Cl)ccc32)cc1OC` the Potency was “inactive”.
`C[n+]1c(/C=C/c2ccc(F)cc2)ccc2ccccc21` was tested, and the Potency was inconclusive: 44.7 µM [inhibitor, partial curve].
For `COc1cccc(C(c2nnnn2Cc2ccccc2)N2CCN(C(=O)c3ccco3)CC2)c1OC` (centres undefined), the Potency was inconclusive: 17.8 µM [inhibitor, single point].
`CCN(C(=O)COC(=O)c1ccccc1NCc1ccco1)c1c(N)n(Cc2ccccc2)c(=O)[nH]c1=O` was tested, and the Potency was inconclusive: 89.1 µM [inhibitor, single point].
For `O=C(NCc1ccco1)C(=O)NCC1OCCN1C(=O)c1ccc(Cl)cc1` (centres undefined), the Potency was inconclusive: 28.2 µM [inhibitor, partial curve, poor fit].
`C#CCOCCOCCOCCNc1nc(N2CCN(C(=O)[C@H](CCC(=O)O)n3cc(CN)nn3)CC2)nc(N2CCN(C(=O)[C@H](CCC(=O)O)n3cc(CN)nn3)CC2)n1` was tested, and the Potency was inconclusive: 79.4 µM [inhibitor, partial curve, poor fit].
In the case of `COc1cccc(/C=N/n2c(COc3ccccc3)n[nH]c2=S)c1OC`, the Potency was inconclusive: 56.2 µM [inhibitor, partial curve, poor fit].
With `CCN1CCC[C@H]1CNC(=O)c1c(O)c(Cl)cc(Cl)c1OC` the Potency was inconclusive: 21.2 µM [inhibitor, single point].
With `Cc1sc2nc(CN3CCN(c4ccc(O)cc4)CC3)[nH]c(=O)c2c1C` the Potency was “inactive”.
With `O=S(=O)(c1ccc2ncn(O)c2c1)N1CCOCC1` the Potency was “inactive”.
`COc1ccc(C(C)=O)cc1COC(=O)c1ccc2c(c1)OCCO2` was tested, and the Potency was active: 56.2 µM.
`Cc1cc(C)c(C(=O)N2CCCC(Nc3ccc(C)c(C)c3)C2)o1` (centres undefined) was tested, and the Potency was inconclusive: 79.4 µM [inhibitor, single point].
With `CCOc1ccccc1NC(=O)C1C2C=CC(O2)C1C(=O)O` (centres undefined) the Potency was inconclusive: 70.8 µM [inhibitor, single point].
In the case of `COC(=O)C1=C(C)NC(=O)/C1=C\c1cc(C)n(-c2ccccc2C)c1C`, the Potency was inconclusive: 25.1 µM [inhibitor, single point].
With `COC(=O)Cc1c(C)c2cc3c(c(C)c2oc1=O)OCN(CCc1ccccc1F)C3` the Potency was inconclusive: 15.8 µM [inhibitor, partial curve].
For `COc1ccc(CCn2c(C3CCCCC3)nc3c(c(=O)c4ccccc4n3C)c2=O)cc1OC`, the Potency was inconclusive: 89.1 µM [inhibitor, partial curve, poor fit].
With `COc1ccc(-c2nn3c(-c4ccco4)nnc3s2)cc1OC` the Potency was inconclusive: 70.8 µM [inhibitor, single point].
In the case of `O=C(Cn1cnc2ccccc2c1=O)NCCCN1CCCC1=O`, the Potency was inconclusive: 89.1 µM [inhibitor, single point].
With `O=C(N/N=C/c1ccncc1)c1ccccc1[N+](=O)[O-]` the Potency was “inactive”.
With `C[C@H](CO)N1C[C@H](C)[C@@H](CN(C)S(=O)(=O)c2cccs2)Oc2c(NC(=O)Nc3ccccc3)cccc2C1=O` the Potency was inconclusive: 35.5 µM [inhibitor, partial curve, poor fit].
With `CS(=O)(=O)c1oc(-c2ccc(F)cc2)nc1S(=O)(=O)c1ccc(Cl)cc1` the Potency was active: 0.501 µM.
`COc1ccc(C(C)(C)C)cc1NC(=O)Nc1ccc2c(c1)OCO2` was tested, and the Potency was “inactive”.
`O=C(/C=C/c1ccccc1)NC(NC(=S)Nc1ccc(Cl)cc1Cl)C(Cl)(Cl)Cl` (centres undefined) was tested, and the Potency was inconclusive: 79.4 µM [inhibitor, single point].
`COCCNC(=S)NC(=O)c1ccc(C(C)(C)C)cc1` was tested, and the Potency was inconclusive: 17.8 µM [inhibitor, full curve].
With `Cc1ccc2oc(C(=O)N(C)Cc3ccon3)c(C)c2c1` the Potency was “inactive”.
`O=P(C1=C(N2CCOCC2)/C(=C\c2ccccc2)CC1)(N1CCOCC1)N1CCOCC1` was tested, and the Potency was inconclusive: 15.8 µM [inhibitor, full curve].
With `CN(C)S(=O)(=O)c1ccc2c(c1)N(CC(=O)N1CCN(c3cccc(Cl)c3)CC1)CCS2` the Potency was “inactive”.
`Cn1c(=O)c(=O)n(C)c2cc(S(=O)(=O)CCC(=O)Nc3cccc(C(F)(F)F)c3)ccc21` was tested, and the Potency was inconclusive: 89.1 µM [inhibitor, single point].
`COc1cc(NC(=O)Nc2nnc(N3CCCCCC3)s2)cc(OC)c1` was tested, and the Potency was “inactive”.
`COc1ccc(C(CC(=O)NC(C)(C)C)n2cccc2)cc1` (centres undefined) was tested, and the Potency was inconclusive: 17.8 µM [inhibitor, full curve, poor fit].
`CCc1cc(=O)oc2cc(OC(=O)CN3C(=O)NC4(CCCC4)C3=O)ccc12` was tested, and the Potency was inconclusive: 28.2 µM [inhibitor, single point].
For `Cc1ccc(C)c(S(=O)(=O)ON2C(=O)c3ccccc3C2=O)c1`, the Potency was active: 3.16 µM.
In the case of `CCc1ccc(NC(=O)CSc2ccc(-c3ccco3)nn2)cc1`, the Potency was inconclusive: 17.8 µM [inhibitor, single point].
For `COc1ccc(-c2ccc([C@H]3[C@H]4C=CC[C@@H](C)[C@@H]4C(=O)N3Cc3ccccc3)c(F)c2)cc1OC`, the Potency was “inactive”.
In the case of `COc1ccc2[nH]c(=O)c(C3c4cc(OC)c(OC)cc4CCN3C(=O)c3ccco3)cc2c1` (centres undefined), the Potency was inconclusive: 35.5 µM [inhibitor, partial curve, poor fit].
In the case of `CSc1nc(O)c(C(c2ccc(C)cc2)c2c(O)nc(SC)[nH]c2=O)c(=O)[nH]1`, the Potency was inconclusive: 39.8 µM [inhibitor, partial curve].
In the case of `COc1cccc(CNc2ccc(N3CCCCC3)cc2)c1OC`, the Potency was inconclusive: 25.1 µM [inhibitor, partial curve, poor fit].
`CCOC(=O)c1c(NC(=O)/C=C/c2ccco2)sc(C)c1C` was tested, and the Potency was inconclusive: 17.8 µM [inhibitor, partial curve].
`Cc1nnc(SCCC(=O)Nc2nc(-c3ccccc3)ns2)s1` was tested, and the Potency was inconclusive: 89.1 µM [inhibitor, single point].
In the case of `CCc1nc(OCc2ccco2)c2sc3nc4c(cc3c2n1)COC(C)(C)C4`, the Potency was inconclusive: 28.2 µM [inhibitor, single point].
In the case of `Cc1ccccc1CN1C(=O)CS/C1=N/N=C/c1ccco1`, the Potency was inconclusive: 25.1 µM [inhibitor, full curve].
In the case of `CCN(CC1CCCO1)C(=O)CCc1nnc(CCc2ccc(OC)cc2)o1` (centres undefined), the Potency was “inactive”.
For `CN(C)C(CNC(=O)C1CCCN(C(=O)c2ccc(Cl)cc2)C1)c1ccco1` (centres undefined), the Potency was inconclusive: 31.6 µM [inhibitor, single point].
With `CCc1ccc2[nH]c(=O)c(CN(CCCN3CCOCC3)C(=O)Nc3cccc(Cl)c3)cc2c1` the Potency was inconclusive: 79.4 µM [inhibitor, partial curve].
For `COc1cc(C(=O)Oc2cc(N)n(S(=O)(=O)c3ccccc3)n2)cc(OC)c1OC`, the Potency was inconclusive: 39.8 µM [inhibitor, partial curve, poor fit].
`Cc1ccc2c(c1)sc[n+]2Cc1ccccc1` was tested, and the Potency was inconclusive: 6.31 µM [inhibitor, single point].
In the case of `CCCN1CCC(=O)N([C@H](CSc2ccccc2)c2ccccc2)CC1`, the Potency was inconclusive: 79.4 µM [inhibitor, partial curve].
In the case of `c1nc(SSc2ncc3n[nH]nc3n2)nc2n[nH]nc12`, the Potency was inconclusive: 10 µM [inhibitor, full curve, poor fit].
In the case of `CN(Cc1nc2ccccc2[nH]1)C(=O)C1CCC(=O)N(CCc2cccc(F)c2)C1` (centres undefined), the Potency was inconclusive: 89.1 µM [inhibitor, single point].
In the case of `COc1cccc(-c2onc3ccc(C(C)=O)cc23)c1`, the Potency was inconclusive: 35.5 µM [inhibitor, partial curve].
For `Cc1ccc(S(=O)(=O)NCC(=O)OCC(=O)NCc2ccco2)cc1`, the Potency was inconclusive: 70.8 µM [inhibitor, partial curve].
In the case of `CCOc1cc(C2C(C#N)=C(N)SC(N)=C2C#N)ccc1OCCN1CCOCC1`, the Potency was inconclusive: 17.8 µM [inhibitor, partial curve].
For `O=C(c1cccs1)N1CCN(C(=O)c2cccs2)C1=S`, the Potency was inconclusive: 79.4 µM [inhibitor, single point].
